Source: PubChem BioAssay AID485364 (National Center for Advancing Translational Sciences (NCATS), 2010)
The campaign covered roughly 360,000 compounds. About 11,000 (3.1%) were called active. The inconclusive results got no clear call from the source; some entries with a clear call stand among them for comparison. Calls come from the whole dose curve; as a rule, active = well fitted inhibition curve with a large enough effect; inconclusive = small, poorly fitted or top-dose-only effect; inactive = no such curve, though single readings can be large or run the other way. Potencies of inconclusive entries are left out as doubtful fits.
Note: nearly all actives have a fitted effect of over 60% in size.
Potency is the fitted concentration of half-maximal effect; tags give direction and shape of the fitted curve.

Each molecule was assayed against Schistosoma mansoni thioredoxin glutathione reductase (TGR) (UniProt Q962Y6) (assay: qHTS Assay for the Inhibitors of Schistosoma Mansoni Peroxiredoxins). Settings: purified TGR, DTNB reduction, TNB absorbance 405 nm; series mostly up to 114 µM.
Procedure, shortened: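 TGR 20 nM + NADPH 100 uM (dispensed conc.), cpd preinc 15 min RT; start with NADPH (500 uM addition) then DTNB (15 mM addition). Kinetic TNB absorbance, 405 nm filter. Four-parameter Hill fit across titration.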
`Cc1ccc(NC(=O)/C=C/c2ccco2)nc1` was tested, and the Potency was “inactive”.
In the case of `CCOC(=O)C1CCCN1C(=O)c1ccc(OC)c(Br)c1` (stereo unspecified), the Potency is reported as inconclusive [inhibitor, partial curve].
In the case of `Cc1ccc(S(=O)(=O)N(C)C)cc1-n1c(SCC(=O)Nc2ccc(F)cc2)nc2ccccc2c1=O`, the Potency is reported as inconclusive [inhibitor, single point].
`Cc1ccccc1-c1nc(CS(=O)CC(=O)NC(C)CCc2ccccc2)c(C)o1` (stereo unspecified) was tested, and the Potency was active: 0.141 µM.
For `Cc1cc(S(=O)(=O)N2CCCC(N(C)CCc3ccccn3)C2)c(C)s1` (stereo unspecified), the Potency was inconclusive [inhibitor, partial curve].
For `O=C(c1ccc(Cl)cc1)n1cnc2ccccc21`, the Potency was inconclusive [inhibitor, full curve, poor fit].
`CN1CCN(C(=O)/C(=C/c2cccnc2)NC(=O)c2cccc(Br)c2)CC1` was tested, and the Potency was inconclusive [inhibitor, full curve].
With `CC1(c2ccccc2Cl)NC(=O)N(CC(=O)NCc2ccco2)C1=O` (stereo unspecified) the Potency was inconclusive [inhibitor, full curve, poor fit].
In the case of `Cc1nnc(N/N=C/c2cc([N+](=O)[O-])c(N3CCC(C)CC3)cc2N2CCC(C)CC2)n1N`, the Potency is reported as inconclusive [inhibitor, single point].
For `Cc1ccc(CCNS(=O)(=O)c2c(C)nc3sccn3c2=O)cc1`, the Potency was “inactive”.
`O=C(COC(=O)c1cnccn1)Nc1ncc(Cl)cc1Cl` was tested, and the Potency was inconclusive [inhibitor, partial curve].
For `Cc1ncc([N+](=O)[O-])n1CC(=O)NC1CCCCC1`, the Potency was inconclusive [inhibitor, single point].
`COc1ccc(C)cc1NC(=O)c1noc2c1CSc1ccccc1-2` was tested, and the Potency was “inactive”.
`O=C(O)c1ccccc1-c1ccc(/C=c2\sc3nc4cc(Br)cnc4n3c2=O)o1` was tested, and the Potency was inconclusive [inhibitor, partial curve, poor fit].
In the case of `Cc1ccc(C)c(CSc2nnc3[nH]c(=O)cc(C)n23)c1`, the Potency is reported as “inactive”.
For `CCN(CC)c1ccc2nc3ccccc3[n+](CC)c2c1`, the Potency was inconclusive [inhibitor, single point].
For `O=S1(=O)NC(CC2=CCCCC2)C2CCCCC2O1` (stereo unspecified), the Potency was “inactive”.
`COc1cc(CNC2CCCCCC2)cc(OC)c1O` was tested, and the Potency was inconclusive [inhibitor, partial curve].
In the case of `COc1ccccc1N1CCN(C2CCCN(C(=O)c3ccoc3C)C2)CC1` (stereo unspecified), the Potency is reported as inconclusive [inhibitor, partial curve].
`COC(=O)NC(Nc1sc2c(c1C(N)=O)CCCC2)(C(=O)OC)C(F)(F)F` (stereo unspecified) was tested, and the Potency was inconclusive [inhibitor, partial curve].
With `O=C(NC(=S)Nc1nc(-c2ccc([N+](=O)[O-])cc2)cs1)c1ccco1` the Potency was inconclusive [inhibitor, partial curve, poor fit].
`COc1cc(NS(=O)(=O)c2ccc(NC(=S)NC(=O)COc3ccccc3OC)cc2)nc(OC)n1` was tested, and the Potency was inconclusive [inhibitor, partial curve].
With `O=C(O)c1cccc(-n2c(/C=C/c3ccccc3)nc3ccccc3c2=O)c1` the Potency was inconclusive [inhibitor, partial curve].
In the case of `O=C(NCCC(=O)N1CCN(Cc2c(F)cccc2Cl)CC1)c1ccc(Cl)cc1`, the Potency is reported as inconclusive [inhibitor, partial curve].
`Cc1ccc(S(=O)(=O)Nc2cc(Cl)c(O)cc2C)cc1` was tested, and the Potency was active: 50.1 µM.
With `C(#CCN1CCOCC1)COCCOC(c1ccccc1)c1ccccc1` the Potency was inconclusive [inhibitor, partial curve, poor fit].
With `NC(=O)c1ccccc1N/C=C/C(=O)c1ccco1` the Potency was inconclusive [inhibitor, partial curve].
`CCOC(=O)C1(C)NC(c2ccco2)C2C(=O)N(c3ccc(C)cc3)C(=O)C21` (stereo unspecified) was tested, and the Potency was inconclusive [inhibitor, single point].
With `Cc1ccc(-c2ccc(/C=N\NC(=O)C3C(=O)NCC3c3ccccc3)o2)cc1Cl` (stereo unspecified) the Potency was inconclusive [inhibitor, partial curve, poor fit].
`COc1ccc(NC(=O)c2scc(S(=O)(=O)C(C)C)c2N)cc1` was tested, and the Potency was “inactive”.
`Cc1nn(Cc2ccc(C(=O)N3CCOCC3)o2)c(C)c1Br` was tested, and the Potency was inconclusive [inhibitor, partial curve].
With `CCNc1cc(O)ccc1C` the Potency was inconclusive [inhibitor, partial curve].
With `COc1cccc(NC(=O)CNC(=O)c2ccccc2)c1` the Potency was “inactive”.
In the case of `CC1CCc2c(sc(Nc3nc4c(F)cccc4s3)c2C(N)=O)C1` (stereo unspecified), the Potency is reported as inconclusive [inhibitor, partial curve].
In the case of `Nc1c(C(=O)NCc2ccco2)sc2nc3c(cc12)C(=O)CCC3`, the Potency is reported as active: 8.91 µM.
In the case of `O=C1CCCC2(O)C1C(c1cccc(Br)c1)NC(=O)N2Cc1ccccc1` (stereo unspecified), the Potency is reported as inconclusive [inhibitor, full curve].
For `COc1c(O)cc2oc(-c3ccc(O)c(O)c3)cc(=O)c2c1O`, the Potency was active: 39.8 µM.
In the case of `COc1cccc(-c2csc(NC(=O)Oc3ccccc3)n2)c1`, the Potency is reported as inconclusive [inhibitor, partial curve].
In the case of `COc1ccc2c(c1)c(=O)oc1c(C)c(OC(C)C(=O)N[C@@H](Cc3c[nH]c4ccc(O)cc34)C(=O)O)ccc12` (stereo partly specified), the Potency is reported as inconclusive [inhibitor, full curve, poor fit].
With `COc1ccc(-c2nc(CS(=O)(=O)CC(=O)NC3CCC(C)CC3)c(C)o2)cc1` (stereo unspecified) the Potency was inconclusive [inhibitor, partial curve].
With `CCCNC(=O)c1ccc(N2CCC3(CC2)CC(c2ccccc2)=NO3)c(NC(=O)c2cccc(C)c2)c1` the Potency was “inactive”.
For `Cc1cccc(-n2c(SCC(=O)NCc3ccco3)nnc2-c2ccco2)c1`, the Potency was inconclusive [inhibitor, partial curve].
With `O=C(N/N=C\c1cccs1)c1sccc1-n1cccc1` the Potency was “inactive”.
For `COc1ccc2ccccc2c1CNCCN1CCOCC1`, the Potency was inconclusive [inhibitor, partial curve].
With `CCN(CC(=O)Nc1c(F)cccc1F)C(=O)c1ccc(N2CCOCC2)c([N+](=O)[O-])c1` the Potency was active: 44.7 µM.
In the case of `Cc1cc(C)n(-c2nc(Nc3ccccc3C(F)(F)F)nc(-n3nc(C)cc3C)n2)n1`, the Potency is reported as “inactive”.
In the case of `CCN(CC)CCn1c2ccccc2c2n[nH]c(=S)nc21`, the Potency is reported as inconclusive [inhibitor, partial curve].
With `COc1cc(CN2CCC(C(=O)NC3CCCC3)CC2)ccc1O` the Potency was inconclusive [inhibitor, partial curve].
With `COc1ccc(CNC(=O)CSCc2nc(-c3ccccc3C)oc2C)cc1` the Potency was “inactive”.
`Cc1c(NC(=O)c2cc(-n3cnnc3)ccc2Cl)cccc1-c1nc2ccccc2s1` was tested, and the Potency was “inactive”.
In the case of `O=[N+]([O-])c1ccc(SCc2c(F)cccc2Cl)nc1`, the Potency is reported as “inactive”.
For `COC(=O)N1C(=O)[C@](c2ccc(Cl)cc2)(C(C)C)N1C(=O)OC`, the Potency was active: 10 µM.
For `Cc1ccc(-n2c(SCC(=O)Nc3cc(S(=O)(=O)N4CCOCC4)ccc3Cl)nc3ccccc3c2=O)cc1`, the Potency was “inactive”.
`CCc1cc(C(=O)c2ccc(C)cc2)c(NC(=O)CCl)s1` was tested, and the Potency was inconclusive [inhibitor, full curve].
In the case of `CCC1NC(C(=O)O)Cc2c1[nH]c1ccccc21` (stereo unspecified), the Potency is reported as active: 39.8 µM.
For `FC(F)(F)c1cc(-c2ccco2)nc(N2CCN(Cc3ccccc3)CC2)n1`, the Potency was inconclusive [inhibitor, full curve].
With `C/C(CC(=O)Nc1ccc(N(C)C)cc1)=N\NC(=O)c1ccc([N+](=O)[O-])cc1` the Potency was inconclusive [inhibitor, partial curve].
In the case of `O=c1[nH]c(=S)n(Cc2ccc(F)cc2)c(O)c1/C=N/N1CCCCC1`, the Potency is reported as inconclusive [inhibitor, full curve, poor fit].
In the case of `CC(C)[C@H](NC(N)=O)C(=O)Nc1cccc([N+](=O)[O-])c1`, the Potency is reported as inconclusive [inhibitor, single point].
With `Cc1cc2[nH]c(=O)c(=O)[nH]c2cc1S(=O)(=O)NC1CCC(C)CC1` (stereo unspecified) the Potency was “inactive”.
For `Cc1ccc2cc(C)c3nnc(SCC(=O)N4CCCc5ccccc54)n3c2c1C`, the Potency was “inactive”.
For `Cc1ccccc1OCC(=O)NCCC1=CCCCC1`, the Potency was “inactive”.
In the case of `CC1(C(=O)NNC(=O)c2ccc([N+](=O)[O-])cc2)CC1(Br)Br` (stereo unspecified), the Potency is reported as inconclusive [inhibitor, partial curve].
`N/C(=N\OC(=O)c1cc([N+](=O)[O-])ccc1Cl)c1ccccn1` was tested, and the Potency was inconclusive [inhibitor, partial curve].
`CC(C)NC(=O)C1CCC(Cn2c(=O)c3sccc3n(CC(=O)Nc3ccccc3)c2=O)CC1` (stereo unspecified) was tested, and the Potency was “inactive”.
With `Cc1ccccc1Oc1cc(-n2ncc(Cl)c(Cl)c2=O)ncn1` the Potency was active: 2 µM.
In the case of `CN1CCN(C(=O)c2ccccc2NC(=O)c2ccccc2Br)CC1`, the Potency is reported as “inactive”.
In the case of `CCOC(=O)c1ccc(NC(=S)NCCc2ccc(OC)c(OC)c2)cc1`, the Potency is reported as inconclusive [inhibitor, partial curve, poor fit].
In the case of `COc1cc2c(cc1OC)C1O[C@](CCCCN3C(=O)c4ccccc4C3=O)(C2)OC2=C1C(=O)c1ccccc1C2=O`, the Potency is reported as active: 3.98 µM.
`CCCCn1c(N)c(N(CC)C(=O)CCNC(=O)NC23CC4CC(CC(C4)C2)C3)c(=O)[nH]c1=O` was tested, and the Potency was “inactive”.
`CCN1CC=C2C(C1)C(c1ccc(Cl)s1)C(C#N)=C(N)C2(C#N)C#N` (stereo unspecified) was tested, and the Potency was inconclusive [inhibitor, partial curve].
